Reference: US8613927B2, “High affinity human antibodies to human nerve growth factor” (Regeneron Pharmaceuticals, Inc., priority 2007, dated 2013)

T1: human NT-3 (Homo sapiens, UniProt P20783)
T1 sequence (P20783 139-257): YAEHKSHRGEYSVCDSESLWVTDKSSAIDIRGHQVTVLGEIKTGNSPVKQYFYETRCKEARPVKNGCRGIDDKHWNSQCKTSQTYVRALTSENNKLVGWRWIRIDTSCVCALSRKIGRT


Molecular target: T1, human NT-3
Experiment: BIACORE cross-reactivity test, NT-3
Assay type: binding
Conditions: NT-3 1.25 nM to 40 nM; purified antibodies
Protocol: The anti-NGF antibodies were examined for binding cross-reactivity with human NT-3. Briefly, goat anti-human IgG polyclonal antibody was chemically linked to a CM5 chip. Anti-NGF monoclonal antibodies were injected forming a surface of about 50 to 900 RU of immobilized antibody through the interaction with the chip coupled polyclonal antibodies. […] Both association and dissociation phases were monitored and data were analyzed. Results are shown in Table 3 (NB=no binding activity observed).

Molecule	affinity for NT-3
REGN477: HCVR/LCVR SEQ ID NO:232/234 and mutant hIgG4 SEQ ID NO:543 (antibody) heavy: EVQLVESGGGLVQPGRSLRLSCAAPGFNFDDYAMHWVRQTPGKGLEWVSGISWNSGTIGYADSVKGRFTISRDNAKNSLYLQMNSLRPEDTALYYCAKEGVWFGKLFSSYGMDVWGQGTTVTVSSASTKGPSVFPLAPCSRSTSESTAALGCLVKDYFPEPVTVSWNSGALTSGVHTFPAVLQSSGLYSLSSVVTVPSSSLGTKTYTCNVDHKPSNTKVDKRV[human IgG4 Fc with S228P (EU numbers) omitted here] VL: EIVMTQSPATLSVSPGERATLSCRASQSVTYNLDWYQQKPGQAPRLLIFGASTRATGIPARFSGSGSGTEFTLTITSLQSEDFAVYYCQQYNNWPYTFGQGTKLEIKR	none of the test antibodies exhibited measurable affinity
REGN472: HCVR/LCVR SEQ ID NO:100/102 and hIgG1 SEQ ID NO:541 (antibody) heavy: QVQLVQSGAEVKKPGASVKVSCKVSGFTLTELSMHWVRQAPGKGLEWMGGFDPEDGETIYAQKFQGRVTMTEDTSTDTAYMELSSLRSEDTAVYYCSTIFGVVTNFDNWGQGTLVTVSS[human IgG1 constant region omitted here] VL: DIQMTQSPSSLSASVGDRVTITCRASQAIRNDLGWYQQKPGKAPKRLIYAAFNLQSGVPSRFSGSGSGTEFTLTISSLQPEDFATYYCQQYNRYPWTFGQGTKVEIKR	none of the test antibodies exhibited measurable affinity
REGN474: HCVR/LCVR SEQ ID NO:100/102 and mutant hIgG4 SEQ ID NO:543 (antibody) heavy: QVQLVQSGAEVKKPGASVKVSCKVSGFTLTELSMHWVRQAPGKGLEWMGGFDPEDGETIYAQKFQGRVTMTEDTSTDTAYMELSSLRSEDTAVYYCSTIFGVVTNFDNWGQGTLVTVSSASTKGPSVFPLAPCSRSTSESTAALGCLVKDYFPEPVTVSWNSGALTSGVHTFPAVLQSSGLYSLSSVVTVPSSSLGTKTYTCNVDHKPSNTKVDKRV[human IgG4 Fc with S228P (EU numbers) omitted here] VL: DIQMTQSPSSLSASVGDRVTITCRASQAIRNDLGWYQQKPGKAPKRLIYAAFNLQSGVPSRFSGSGSGTEFTLTISSLQPEDFATYYCQQYNRYPWTFGQGTKVEIKR	none of the test antibodies exhibited measurable affinity
